# Data: PubChem BioAssay AID258 (DTP/NCI, 2004)
# Toxic doses and inconclusive results are not listed. Certain results were filed several times, with different values. The other results are left out here. There may be further records. Results that share an entry repeat one measurement in other runs, samples, wells, individuals or studies.
# Tested on: CD2F1 mice, L1210 leukemia sc, survival T/C
# Assay: NCI In Vivo Anticancer Drug Screen. Data for tumor model L1210 Leukemia (subcutaneous) in CD2F1 (CDF1) mice
# Conditions: endpoint: median survival time, higher = longer survival
# Procedure: The antitumor activity of compounds was measured in mice bearing transplantable tumors. Survival or tumor size were measured and the results are expressed as the measurement made in the treated group (T) divided by the measurement made in the vehicle treated control group (C). The tumor model used in this assay is L1210 Leukemia (subcutaneous) in CD2F1 (CDF1) mice
compound,measurement,setting,value
Cc1ccc(NCCN(C)C)c2c(=O)c3cc(O)ccc3sc12,T/C,"dose: 100.0 mg/kg/injection, schedule: Q01DX009 (ip), vehicle: Klucel (hydroxypropylcellulose) (HPC)",94 % of control and 172 % of control
CN(C)/N=N/c1nc[nH]c1C(N)=O,T/C,"dose: 75.0 mg/kg/injection, schedule: Q01DX009 (sc), vehicle: saline",109 % of control and 156 % of control
O=NNc1cnccn1,T/C,"dose: 40.0 mg/kg/injection, schedule: Q01DX009 (ip), vehicle: water",100 % of control and 179 % of control
C1CN1c1nc(N2CC2)nc(N2CC2)n1,T/C,"dose: 0.8 mg/kg/injection, schedule: Q01DX009 (sc), vehicle: saline",107 % of control and 164 % of control
O=c1[nH]cc(F)c(=O)[nH]1,T/C,"dose: 20.0 mg/kg/injection, schedule: Q01DX009 (ip), vehicle: saline",116 % of control and 153 % of control
CCOC(=O)C(CC(C)C)NC(=O)C(Cc1ccc(N(CCCl)CCCl)cc1)NC(C)=O (configuration not stated),T/C,"dose: 256.0 mg/kg/injection, schedule: Q01DX009 (sc), vehicle: Klucel (hydroxypropylcellulose) (HPC)",117 % of control and 162 % of control
COc1ccc2[nH]c3ccc4cc[n+](CCN5CCC(C6CCN(CC[n+]7ccc8ccc9[nH]c%10ccc(OC)cc%10c9c8c7)CC6)CC5)cc4c3c2c1,T/C,"dose: 25.0 mg/kg/injection, schedule: Q01DX009 (ip), vehicle: Klucel (hydroxypropylcellulose) (HPC)",117 % of control and 151 % of control
CN(Cc1cnc2nc(N)nc(N)c2n1)c1c(Cl)cc(C(=O)NC(CCC(=O)O)C(=O)O)cc1Cl (configuration not stated),T/C,"dose: 208.0 mg/kg/injection, schedule: Q01DX Z (oral), vehicle: other","118 % of control, 154 % of control, 165 % of control"
O=NN(CCCl)C(=O)NC1CCCCC1,T/C,"dose: 14.0 mg/kg/injection, schedule: Q01DX Z (sc), vehicle: carboxymethylcellulose (CMC)","112 % of control, 277 % of control, 481 % of control"
S=c1nc[nH]c2nc[nH]c12,T/C,"dose: 108.0 mg/kg/injection, schedule: Q01DX Z (sc), vehicle: methylcellulose (MC)",118 % of control and 150 % of control
N[C@@H](Cc1ccc(N(CCCl)CCCl)cc1)C(=O)O,T/C,"dose: 8.0 mg/kg/injection, schedule: Q01DX009 (sc), vehicle: saline",105 % of control and 162 % of control
same,T/C,"dose: 10.0 mg/kg/injection, schedule: Q01DX009 (ip), vehicle: saline",102 % of control and 161 % of control
